Experimental data from article PMC5700166.
The entries are a selection whose mix differs from that of the whole data set. The list includes weakly bound sequences.

What follows are sequences tested against T1, GST-Ap-NF-kB RHD (UniProt A0A913YAJ5) (assay: protein-binding microarray (PBM)). Details: PBM: ~300 nM protein, 6 mM HEPES pH 7.8, 80 mM KCl, 0.5 mM EDTA, 0.5 mM EGTA, 6% glycerol, 35 ng/ul poly-dIdC, 1% milk, 1 h, room temperature; high values mean tight binding; double strand, one strand shown.
T1 sequence: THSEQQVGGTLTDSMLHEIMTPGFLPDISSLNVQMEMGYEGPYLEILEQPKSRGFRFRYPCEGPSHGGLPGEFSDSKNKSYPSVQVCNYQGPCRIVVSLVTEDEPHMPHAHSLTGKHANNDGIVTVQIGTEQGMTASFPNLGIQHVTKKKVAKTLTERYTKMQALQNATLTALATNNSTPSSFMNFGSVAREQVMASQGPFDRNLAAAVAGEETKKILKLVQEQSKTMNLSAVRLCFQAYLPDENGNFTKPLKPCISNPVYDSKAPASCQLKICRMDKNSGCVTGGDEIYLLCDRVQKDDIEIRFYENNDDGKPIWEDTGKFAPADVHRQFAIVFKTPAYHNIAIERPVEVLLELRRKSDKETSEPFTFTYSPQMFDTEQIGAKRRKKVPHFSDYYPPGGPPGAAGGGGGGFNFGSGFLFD

Row | Sequence | binding signal
1 | CCGATTAACATCACACACCCCCCTGATGTTAATCGGGTCTTGATTCGCTTGACGCTGCTG | 4.13 z-score
2 | CCGATTAACATCACGGGGGATTCTGATGTTAATCGGGTCTTGATTCGCTTGACGCTGCTG | 8.95 z-score
3 | CCGATTAACATCAGGGGCACCCCTGATGTTAATCGGGTCTTGATTCGCTTGACGCTGCTG | 5.17 z-score
4 | CCGATTAACATCAGAGTATCCCCTGATGTTAATCGGGTCTTGATTCGCTTGACGCTGCTG | 5.9 z-score
5 | CCGATTAACATCAGGGGACTTACTGATGTTAATCGGGTCTTGATTCGCTTGACGCTGCTG | 5.97 z-score
6 | CCGATTAACATCAAACCACCCCCTGATGTTAATCGGGTCTTGATTCGCTTGACGCTGCTG | 3.91 z-score
7 | CCGATTAACATCAGGGAATTACATGATGTTAATCGGGTCTTGATTCGCTTGACGCTGCTG | 4.01 z-score
8 | CCGATTAACATCAAGGAGTCCCCTGATGTTAATCGGGTCTTGATTCGCTTGACGCTGCTG | 7.69 z-score
9 | CCGATTAACATCAGCGGGAATCCTGATGTTAATCGGGTCTTGATTCGCTTGACGCTGCTG | 2.44 z-score
10 | CCGATTAACATCAGGAAACACCCTGATGTTAATCGGGTCTTGATTCGCTTGACGCTGCTG | 3.05 z-score
11 | CCGATTAACATCATATGGGAAAATGATGTTAATCGGGTCTTGATTCGCTTGACGCTGCTG | 1.55 z-score
12 | CCGATTAACATCAGGGATAACCCTGATGTTAATCGGGTCTTGATTCGCTTGACGCTGCTG | 3.63 z-score
13 | CCGATTAACATCAGGGGGAGGAATGATGTTAATCGGGTCTTGATTCGCTTGACGCTGCTG | 5.2 z-score
14 | CCGATTAACATCAGGGAATTCTATGATGTTAATCGGGTCTTGATTCGCTTGACGCTGCTG | 5.04 z-score
15 | CCGATTAACATCACGAAAATCCCTGATGTTAATCGGGTCTTGATTCGCTTGACGCTGCTG | 4.71 z-score
16 | CCGATTAACATCAAAAATTCCAGTGATGTTAATCGGGTCTTGATTCGCTTGACGCTGCTG | 0.126 z-score
17 | CCGATTAACATCAGAATATCCCATGATGTTAATCGGGTCTTGATTCGCTTGACGCTGCTG | 2.05 z-score
18 | CCGATTAACATCAGGGGGGTACCTGATGTTAATCGGGTCTTGATTCGCTTGACGCTGCTG | 5.8 z-score
19 | CCGATTAACATCACAAAAATCCCTGATGTTAATCGGGTCTTGATTCGCTTGACGCTGCTG | 5.86 z-score
20 | CCGATTAACATCAGGGAAGTACATGATGTTAATCGGGTCTTGATTCGCTTGACGCTGCTG | 1.18 z-score

Row | Sequence | binding signal
21 | CCGATTAACATCAAGGGGGGGCGTGATGTTAATCGGGTCTTGATTCGCTTGACGCTGCTG | 4.19 z-score
22 | CCGATTAACATCACAAATTCCCATGATGTTAATCGGGTCTTGATTCGCTTGACGCTGCTG | 2.52 z-score
23 | CCGATTAACATCAGGGGAACAAATGATGTTAATCGGGTCTTGATTCGCTTGACGCTGCTG | 3.88 z-score
24 | CCGATTAACATCAAAATTCCCATTGATGTTAATCGGGTCTTGATTCGCTTGACGCTGCTG | 3.68 z-score
25 | CCGATTAACATCACAAACCCCCCTGATGTTAATCGGGTCTTGATTCGCTTGACGCTGCTG | 6.66 z-score
26 | CCGATTAACATCAAGGGGAATTCTGATGTTAATCGGGTCTTGATTCGCTTGACGCTGCTG | 10.3 z-score
27 | CCGATTAACATCAGGGAATCCTATGATGTTAATCGGGTCTTGATTCGCTTGACGCTGCTG | 3.36 z-score
28 | CCGATTAACATCAGGGAAATCAATGATGTTAATCGGGTCTTGATTCGCTTGACGCTGCTG | 2.16 z-score
29 | CCGATTAACATCATGGGGGGGAATGATGTTAATCGGGTCTTGATTCGCTTGACGCTGCTG | 6.87 z-score
30 | CCGATTAACATCAAGGGAATTTCTGATGTTAATCGGGTCTTGATTCGCTTGACGCTGCTG | 6.34 z-score
31 | CCGATTAACATCAGGGAATTTGATGATGTTAATCGGGTCTTGATTCGCTTGACGCTGCTG | 3.63 z-score
32 | CCGATTAACATCAGGGGAAAAGATGATGTTAATCGGGTCTTGATTCGCTTGACGCTGCTG | 5.46 z-score
33 | CCGATTAACATCAGGGGGTGATATGATGTTAATCGGGTCTTGATTCGCTTGACGCTGCTG | 3.88 z-score
34 | CCGATTAACATCAGTAACTCCCTTGATGTTAATCGGGTCTTGATTCGCTTGACGCTGCTG | 2.54 z-score
35 | CCGATTAACATCAAATTCCCTCGTGATGTTAATCGGGTCTTGATTCGCTTGACGCTGCTG | 3.11 z-score
36 | CCGATTAACATCAAGGGGAAAATTGATGTTAATCGGGTCTTGATTCGCTTGACGCTGCTG | 7.28 z-score
37 | CCGATTAACATCAGATTTTTCCCTGATGTTAATCGGGTCTTGATTCGCTTGACGCTGCTG | 3.33 z-score
38 | CCGATTAACATCAGGGGGGGAACTGATGTTAATCGGGTCTTGATTCGCTTGACGCTGCTG | 6.55 z-score
39 | CCGATTAACATCAGGGGAAGGGATGATGTTAATCGGGTCTTGATTCGCTTGACGCTGCTG | 4.77 z-score

These sequences were tested against T2, GST-Nv-NF-kB (Cys allele) (UniProt E5G601) (assay: protein-binding microarray (PBM)). Details: PBM: ~300 nM protein, 6 mM HEPES pH 7.8, 80 mM KCl, 0.5 mM EDTA, 0.5 mM EGTA, 6% glycerol, 35 ng/ul poly-dIdC, 1% milk, 1 h, room temperature; Ap Aiptasia and Nv Nematostella (sea anemones) / Co Capsaspora / Aq Amphimedon (sponge) / Dm Drosophila / Hu human; RHD is the Rel homology domain; high values mean tight binding; most listed sequences are background and not binding sites; double strand, one strand shown.
T2 sequence: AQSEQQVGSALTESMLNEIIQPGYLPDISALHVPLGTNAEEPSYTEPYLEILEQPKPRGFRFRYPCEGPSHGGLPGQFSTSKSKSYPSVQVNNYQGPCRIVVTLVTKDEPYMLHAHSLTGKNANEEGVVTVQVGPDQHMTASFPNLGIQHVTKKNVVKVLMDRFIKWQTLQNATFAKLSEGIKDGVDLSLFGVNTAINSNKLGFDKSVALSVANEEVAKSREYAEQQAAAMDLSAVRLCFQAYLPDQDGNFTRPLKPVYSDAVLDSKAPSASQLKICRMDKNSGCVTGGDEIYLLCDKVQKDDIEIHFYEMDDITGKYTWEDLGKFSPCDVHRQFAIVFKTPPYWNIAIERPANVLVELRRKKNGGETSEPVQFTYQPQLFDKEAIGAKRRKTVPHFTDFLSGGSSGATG

Row | Sequence | binding signal
40 | CCGATTAACATCACGGGGGATTCTGATGTTAATCGGGTCTTGATTCGCTTGACGCTGCTG | 7.68 z-score
41 | CCGATTAACATCAGGGGCACCCCTGATGTTAATCGGGTCTTGATTCGCTTGACGCTGCTG | 3.94 z-score
42 | CCGATTAACATCAAACCACCCCCTGATGTTAATCGGGTCTTGATTCGCTTGACGCTGCTG | 3.14 z-score
43 | CCGATTAACATCAGGGAATTACATGATGTTAATCGGGTCTTGATTCGCTTGACGCTGCTG | 5.15 z-score
44 | CCGATTAACATCAGGAAACACCCTGATGTTAATCGGGTCTTGATTCGCTTGACGCTGCTG | 2.79 z-score
45 | CCGATTAACATCATATGGGAAAATGATGTTAATCGGGTCTTGATTCGCTTGACGCTGCTG | 3.76 z-score
46 | CCGATTAACATCAGGGATAACCCTGATGTTAATCGGGTCTTGATTCGCTTGACGCTGCTG | 3.77 z-score
47 | CCGATTAACATCAGGGGGAGGAATGATGTTAATCGGGTCTTGATTCGCTTGACGCTGCTG | 4.58 z-score
48 | CCGATTAACATCAGGGAATTCTATGATGTTAATCGGGTCTTGATTCGCTTGACGCTGCTG | 6.52 z-score
49 | CCGATTAACATCAAAAATTCCAGTGATGTTAATCGGGTCTTGATTCGCTTGACGCTGCTG | 0.572 z-score
50 | CCGATTAACATCAGAATATCCCATGATGTTAATCGGGTCTTGATTCGCTTGACGCTGCTG | 1.17 z-score
51 | CCGATTAACATCAAGGGGAATTCTGATGTTAATCGGGTCTTGATTCGCTTGACGCTGCTG | 11.3 z-score
52 | CCGATTAACATCAGGGAAATCAATGATGTTAATCGGGTCTTGATTCGCTTGACGCTGCTG | 3.6 z-score
53 | CCGATTAACATCAGGGGGTGATATGATGTTAATCGGGTCTTGATTCGCTTGACGCTGCTG | 3.66 z-score
54 | CCGATTAACATCAAATTCCCTCGTGATGTTAATCGGGTCTTGATTCGCTTGACGCTGCTG | 4.96 z-score
55 | CCGATTAACATCAAGGGGAAAATTGATGTTAATCGGGTCTTGATTCGCTTGACGCTGCTG | 8.8 z-score
56 | CCGATTAACATCAGGGGAAGGGATGATGTTAATCGGGTCTTGATTCGCTTGACGCTGCTG | 4.77 z-score
